# Laboratory results from a collection of fitness landscapes (doi:10.1016/j.celrep.2020.107928).
# In all, about 81,000 sequences were measured (“one-hybrid fitness for binding parS DNA”: median about -0.17, highest 2% from about 0.51 on). This is one part of the list.
# B1: Caulobacter ParB omega fusion; a variant is named by its letters at X, in order, B8GW30 (parent)
# chain: MESVVVGEPGMSEGRRGLGRGLSALLGEVDAAPAQAPGEQLGGSREAPIEILQRNPDQPRRTFREEDLEDLSNSIREKGVLQPILVRPSPDTAGEYQIVAGERAWRAAQRAGLKTVPIMVRELDDLAVLEIGIIENVQRADLNVLEEALSYKVLMEKFERTQENIAQTIGKSXSHVANXMRLLXLPDEVQSYLVSGELTAXHARAIAAAADPVALAKQIIEGGLSVRETEALARKAPNLSAGKSKGGRPPRVKDTDTQALESDLSSVLGLDVSIDHRGSTGTLTITYATLEQLDDLCNRLTRGI
# Variants of: B1
# Assay: one-hybrid fitness for binding parS DNA (scaled: cognate 1, non-cognate 0); higher = stronger binding
# Settings: with parS DNA site
# Outline: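 Fitness here means the log change in variant-to-wild-type read ratio between plasmids sequenced before and after selection. That scale was set so cognate equals 1 and non-cognate equals 0. The selection was a bacterial one-hybrid screen of Caulobacter ParB libraries, four specificity codons randomised, in E. coli USO carrying a HIS3 reporter with the site 19 bp from the promoter, grown 48 hours at 37°C on M9-minus-histidine with 0.1 mM IPTG and 5 mM 3-AT.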
row,Variant,one-hybrid fitness for binding parS DNA
1,NTCL,≤ 0.2
2,RKCE,≤ 0.2
3,SLAM,≤ 0.2
4,SLTN,≤ 0.2
5,YKRW,≤ 0.2
6,TRVI,≤ 0.2
7,APPG,≤ 0.2
8,RMIF,0.248
9,KAWS,≤ 0.2
10,RIWC,0.936
11,HDLM,≤ 0.2
12,LIYC,≤ 0.2
13,NDTI,≤ 0.2
14,LFNC,≤ 0.2
15,YEVP,≤ 0.2
16,QIVN,≤ 0.2
17,SHRV,≤ 0.2
18,SMHN,≤ 0.2
19,DNGT,≤ 0.2
20,TCDP,≤ 0.2
21,LGLY,≤ 0.2
22,NPST,≤ 0.2
23,QLFY,≤ 0.2
24,SLRE,≤ 0.2
25,MHRS,≤ 0.2

row,Variant,one-hybrid fitness for binding parS DNA
1,RSQV,≤ 0.2
2,CQQT,≤ 0.2
3,LKDR,≤ 0.2
4,WEHT,≤ 0.2
5,HSQM,≤ 0.2
6,HPLF,≤ 0.2
7,TSQQ,≤ 0.2
8,CKKC,≤ 0.2
9,RKGH,≤ 0.2
10,FCLC,≤ 0.2
11,CGLK,≤ 0.2
12,VERP,≤ 0.2
13,TDLS,≤ 0.2
14,WKKG,≤ 0.2
15,HMWS,≤ 0.2
16,HTHP,≤ 0.2
17,RTKD,≤ 0.2
18,TYPC,≤ 0.2
19,LNES,≤ 0.2
20,EYHC,≤ 0.2
21,PYKT,≤ 0.2
22,QMNY,≤ 0.2
23,VQYG,≤ 0.2
24,YLAQ,≤ 0.2
25,GPIC,≤ 0.2

row,Variant,one-hybrid fitness for binding parS DNA
1,WING,≤ 0.2
2,TMWS,≤ 0.2
3,HARR,≤ 0.2
4,RHMT,0.87
5,QPRW,≤ 0.2
6,RLYA,0.607
7,TFSW,≤ 0.2
8,RARN,0.419
9,TIKA,≤ 0.2
10,RVLF,0.259
11,CCYG,≤ 0.2
12,STMG,≤ 0.2
13,RGAA,0.32
14,ATPN,≤ 0.2
15,APWC,≤ 0.2
16,RRRN,0.788
17,LQKD,≤ 0.2
18,LRIM,≤ 0.2
19,AIYR,≤ 0.2
20,LGDQ,≤ 0.2
21,FNHR,≤ 0.2
22,QVAW,≤ 0.2
23,SSPM,≤ 0.2
24,WCKT,≤ 0.2
25,TRVG,≤ 0.2

row,Variant,one-hybrid fitness for binding parS DNA
1,HIQG,≤ 0.2
2,ESPS,≤ 0.2
3,PVVE,≤ 0.2
4,ETIM,≤ 0.2
5,SSNV,≤ 0.2
6,DESI,≤ 0.2
7,EAGA,≤ 0.2
8,DDTL,≤ 0.2
9,YQKR,≤ 0.2
10,IGPS,≤ 0.2
11,YFTC,≤ 0.2
12,KITW,≤ 0.2
13,FQSN,≤ 0.2
14,EDMR,≤ 0.2
15,RYLG,0.986
16,RVWA,0.616
17,KVEE,≤ 0.2
18,QNWT,≤ 0.2
19,RSAR,≤ 0.2
20,TIHF,≤ 0.2
21,RWGN,≤ 0.2
22,RYAR,≤ 0.2
23,YQMG,≤ 0.2
24,AMTC,≤ 0.2
25,GDGR,≤ 0.2

row,Variant,one-hybrid fitness for binding parS DNA
1,NEGY,0.244
2,EFDL,≤ 0.2
3,THPS,≤ 0.2
4,DGNP,≤ 0.2
5,TANL,≤ 0.2
6,PEDT,≤ 0.2
7,KPVV,≤ 0.2
8,VLIK,≤ 0.2
9,RSSA,0.583
10,WPNG,≤ 0.2
11,PDTQ,≤ 0.2
12,SRWV,≤ 0.2
13,TPFW,≤ 0.2
14,RLQA,0.616
15,MRIC,≤ 0.2
16,GSHR,≤ 0.2
17,WYGS,≤ 0.2
18,LPTM,≤ 0.2
19,RTVS,1
20,RNQM,0.228
21,MSFR,≤ 0.2
22,VSAE,≤ 0.2
23,DAIE,≤ 0.2
24,LDKA,≤ 0.2
25,LNVW,≤ 0.2

row,Variant,one-hybrid fitness for binding parS DNA
1,TSQK,≤ 0.2
2,NGII,≤ 0.2
3,QSEK,≤ 0.2
4,YWHI,≤ 0.2
5,HHYS,≤ 0.2
6,KAHD,≤ 0.2
7,HMPD,≤ 0.2
8,QQKP,≤ 0.2
9,TNEV,≤ 0.2
10,FTMR,≤ 0.2
11,TTQQ,≤ 0.2
12,YDSN,≤ 0.2
13,AYSH,≤ 0.2
14,RWRI,≤ 0.2
15,TQLV,≤ 0.2
16,PMQV,≤ 0.2
17,RVPH,≤ 0.2
18,LIRD,≤ 0.2
19,KLLY,≤ 0.2
20,ALLQ,≤ 0.2
21,FTAL,≤ 0.2
22,IASC,≤ 0.2
23,RYVC,0.907
24,RRQM,0.324
25,AHET,≤ 0.2

row,Variant,one-hybrid fitness for binding parS DNA
1,PSNL,≤ 0.2
2,DPDS,≤ 0.2
3,RFDC,0.793
4,HGNL,≤ 0.2
5,MVLN,≤ 0.2
6,PPGT,≤ 0.2
7,DFCR,≤ 0.2
8,YSPC,≤ 0.2
9,DTVS,≤ 0.2
10,RVIP,≤ 0.2
11,FWKS,≤ 0.2
12,TDMC,≤ 0.2
13,VTVY,≤ 0.2
14,TWVR,≤ 0.2
15,KWKD,≤ 0.2
16,NRKF,≤ 0.2
17,SCTR,≤ 0.2
18,AYHT,≤ 0.2
19,PVAS,≤ 0.2
20,TGPK,≤ 0.2
21,EKNG,≤ 0.2
22,NGTC,≤ 0.2
23,QPPG,≤ 0.2
24,MRMM,≤ 0.2
25,CDMS,≤ 0.2

row,Variant,one-hybrid fitness for binding parS DNA
1,HRPI,≤ 0.2
2,HELN,≤ 0.2
3,RGNR,≤ 0.2
4,SHRE,≤ 0.2
5,EDKF,≤ 0.2
6,QYVL,≤ 0.2
7,RNMR,≤ 0.2
8,YGTF,≤ 0.2
9,LLCM,≤ 0.2
10,NMFI,≤ 0.2
11,RYEA,0.548
12,QNMW,≤ 0.2
13,GKNC,≤ 0.2
14,ESHC,≤ 0.2
15,QDEN,≤ 0.2
16,WGFP,≤ 0.2
17,VAMM,≤ 0.2
18,YECS,≤ 0.2
19,GNVC,≤ 0.2
20,RDPT,≤ 0.2
